Test results taken from PubChem BioAssay AID1458 (National Center for Advancing Translational Sciences (NCATS), 2008).
Among all 210,000 compounds or so, about 5,900 (2.8%) were called active. The shares of active, inactive and inconclusive entries below differ from those in the screen. The call rests on the fitted dose curve; in most records, active means well fitted activation curve with a large enough effect; inconclusive means small, poorly fitted or top-dose-only effect; inactive means no such curve, though single readings can be large or run the other way. A potency beside an inconclusive call is a rough fit, not a confirmed value.
Potency means the concentration at half of the fitted maximal effect; tags describe the fitted curve by direction and shape.

Assay: qHTS Assay for Enhancers of SMN2 Splice Variant Expression; further: nearly all actives have a fitted effect of over 55% in size; on activity change, positive = activation: % of control where 0% means no effect
Details: HEK293 SMN2-luciferase splicing reporter, luminescence, 30-36 h; activity change, positive = activation: at 46.1 µM (top of the series)
Summary of the method: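 qHTS luciferase splicing reporter: luminescence rises when SMN2 exon 7 is included in transfected HEK293 cells. Compound exposure lasted 30-36 h at 37C, with 4.5 mM final sodium butyrate as control, followed by a ONE-Glo read.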
For `CCOc1ccc(-n2c(=O)c3c4c(sc3n(Cc3cccc(Cl)c3)c2=O)CCCC4)cc1`, the Potency was “inactive”. In the case of `COc1ccc(C2=CC(c3ccc(C)cc3)n3nnnc3N2)cc1` (stereo not drawn), the Potency is reported as “inactive”. For `COc1ccc(Br)cc1S(=O)(=O)n1ccnc1C`, the Potency was inconclusive: 39.8 µM [activator, partial curve, poor fit]. For `CC(=O)N[C@H]1C[C@@H]1c1ccccc1`, the Potency was inconclusive: 10 µM [activator, partial curve]. With `CCCn1cc(SCC(=O)Nc2nnc(C)s2)c2ccccc21` the Potency was “inactive”. In the case of `O=C(c1cnn(-c2nc3ccccc3s2)c1)c1ccccc1O`, the Potency is reported as “inactive”. In the case of `O=C(NCCSCc1ccco1)Nc1cccc(Cl)c1`, the Potency is reported as inconclusive: 17.8 µM [activator, single point]. For `CCCCCSc1nnc2c(n1)OC(c1ccc(C)s1)N(C(C)=O)c1ccccc1-2` (stereo not drawn), the Potency was inconclusive: 35.5 µM [activator, single point]. With `Cc1cc(C(=O)Nc2ccc(OCc3ccccc3)cc2)c(C)o1` the Potency was inconclusive: 22.4 µM [activator, single point]. In the case of `COc1cccc(NC(=O)Cn2c(=O)n(Cc3ccccc3)c(=O)c3c4c(sc32)CN(C(C)=O)CC4)c1`, the Potency is reported as inconclusive: 17.8 µM [activator, single point]. With `CCCCc1ccc(NC(=O)Cn2cnc3c2c(=O)n(C)c(=O)n3C)cc1` the Potency was “inactive”. For `N#C/C(=C\c1ccc(O)c(O)c1)S(=O)(=O)c1ccccc1`, the Potency was inconclusive: 10 µM [activator, partial curve]. With `CCOC(=O)N1CCN(C(=O)c2ccccc2NC(=O)c2ccc(Br)cc2)CC1` the Potency was inconclusive: 7.94 µM [activator, partial curve]. With `O=C(COC(=O)Cn1cnc2ccccc21)NCCc1ccc(Cl)cc1` the Potency was inconclusive: 0.0224 µM [activator, full curve, poor fit]. In the case of `O=S(Cc1cc(Sc2ccccc2)nc(-c2ccccc2)n1)c1ccccc1` (stereo not drawn), the Potency is reported as inconclusive: 10 µM [activator, partial curve]. For `Cc1ccccc1NC(=S)N1CCN(Cc2ccc3c(c2)OCO3)CC1`, the Potency was inconclusive: 5.01 µM [activator, single point]. In the case of `COc1ccc(C(=O)NC=C2C(=O)OC(C)(C)OC2=O)cc1`, the Potency is reported as “inactive”. For `Cc1ccc(C)c(C(=O)N2CCC(c3nc4c(nnn4Cc4ccccc4)c(=O)[nH]3)CC2)c1`, the Potency was inconclusive: 3.98 µM [activator, partial curve]. With `CCOc1ccc(NC(=O)c2oc3ccccc3c2NC(=O)C(C)Oc2ccccc2)cc1` (stereo not drawn) the Potency was “inactive”. In the case of `Cc1cccc(OCCNc2ccc(C(F)(F)F)cc2[N+](=O)[O-])c1`, the Potency is reported as inconclusive: 20 µM [activator, partial curve, poor fit]. In the case of `CC(=O)c1cc2c(cc1N/C(=N/S(=O)(=O)c1ccc(C)cc1)c1ccc(Cl)cc1)OCO2`, the Potency is reported as inconclusive: 5.62 µM [activator, single point]. For `O=C(COc1ccc(Cl)cc1)Nc1nnc(-c2ccc3c(c2)CCCC3)o1`, the Potency was inconclusive: 14.1 µM [activator, partial curve]. In the case of `O=C(NCCNCCO)c1c(O)c2cccc3c2n(c1=O)CCC3`, the Potency is reported as inconclusive: 0.0251 µM [activator, full curve]. In the case of `COc1ccc(CCNC(=O)CSc2cn(CCNC(=O)c3ccc(OC)c(OC)c3)c3ccccc23)cc1OC`, the Potency is reported as “inactive”. For `CCCCC(=O)Nc1ccc2c(c1)oc1ccccc12`, the Potency was active: 14.1 µM. With `COC(=O)C(N)Cc1ccc(O)c(O)c1` (stereo not drawn) the Potency was inconclusive: 6.31 µM [activator, single point]. For `COc1cc(SC)ccc1C(=O)Nc1ncc(Cl)cc1Cl`, the Potency was active: 12.6 µM. In the case of `Cc1cc(C)n(S(=O)(=O)c2cc(C)c(C)cc2C)n1`, the Potency is reported as “inactive”. In the case of `CC(=O)c1sc(NC(=O)c2ccc(C)cc2)nc1C`, the Potency is reported as active: 5.62 µM. In the case of `CC1CN(C2CCN(C(=O)c3ccccc3)CC2)CC(C)O1` (stereo not drawn), the Potency is reported as inconclusive: 5.62 µM [activator, single point]. With `CCCCCn1c(NCc2ccccc2OC)nc2ccccc21` the Potency was “inactive”. In the case of `Cn1c(=O)c2c(nc(NCc3ccc4c(c3)OCO4)n2C)n(C)c1=O`, the Potency is reported as active: 31.6 µM. For `Cc1ccc2oc(-c3ccccc3)c(C(=O)O)c(=O)c2c1`, the Potency was inconclusive: 15.8 µM [activator, single point]. For `Oc1csc(Cc2nc(-c3ccc(-c4ccccc4)cc3)cs2)n1`, the Potency was “inactive”. For `CNC(=O)c1cc(S(=O)(=O)N(C)C)ccc1Cl`, the Potency was inconclusive: 0.126 µM [activator, full curve, poor fit]. In the case of `CS(=O)(=O)N1CCN(c2ccc(C(=O)NC34CC5CC(CC(C5)C3)C4)cc2[N+](=O)[O-])CC1`, the Potency is reported as inconclusive: 5.62 µM [activator, single point]. For `Oc1ccc(/C=N/NC(=S)Nc2cccnc2)cc1O`, the Potency was inconclusive: 14.1 µM [activator, single point]. With `O=C(CSc1nnc(-c2ccco2)n1Cc1ccccc1)OC1CCCCC1` the Potency was inconclusive: 35.5 µM [activator, single point]. With `CCN(CCCNC(=O)c1nn(-c2ccc(C)cc2)c(=O)c2c1c1ccccc1n2C)c1ccccc1` the Potency was “inactive”. For `O=C(CCSCCC(=O)Nc1ccccc1F)Nc1ccccc1F`, the Potency was inconclusive: 1.41 µM [activator, partial curve, poor fit]. In the case of `Cc1ccc(/C=C/C(=O)Nc2nn[nH]n2)o1`, the Potency is reported as “inactive”. For `COc1ccc(CCN2C(=O)N(c3ccc(F)cc3)C(=O)C2CC(=O)Nc2ccccc2)cc1` (stereo not drawn), the Potency was inconclusive: 5.62 µM [activator, single point]. For `N#C/C(=C\c1ccc(Cl)cc1)C(=O)NCC1CCCO1` (stereo not drawn), the Potency was “inactive”. In the case of `O=C(N/N=C/c1cnc2ccccc2n1)c1cccc(F)c1`, the Potency is reported as inconclusive: 11.2 µM [activator, single point]. In the case of `CCOc1ccccc1NC(=O)COC(=O)CN(C)S(=O)(=O)c1ccc(C)cc1`, the Potency is reported as inconclusive: 0.141 µM [activator, full curve]. With `N#Cc1ccc(CSC2=NCCN2)cc1` the Potency was inconclusive: 20 µM [activator, single point]. For `COc1ccc(/C=N/NC(=O)C(=O)/C=C2\NC3(CCCC3)Cc3ccccc32)cc1`, the Potency was “inactive”. In the case of `Cc1nc2ccc(Cl)cc2c(-c2ccccc2F)c1CC(=O)O`, the Potency is reported as inconclusive: 7.94 µM [activator, full curve]. With `COc1ccc(NC2=NC(=S)N(c3ccc(C)cc3)C23CCCCC3)cc1` the Potency was inconclusive: 12.6 µM [activator, single point]. In the case of `CC1CN(c2ncnc3c2cnn3-c2ccc(Cl)cc2)CC(C)O1` (stereo not drawn), the Potency is reported as inconclusive: 25.1 µM [activator, single point]. In the case of `O=C(CN1C(=O)c2ccccc2S1(=O)=O)Nc1ccc(S(=O)(=O)N2CCCCCC2)cc1`, the Potency is reported as inconclusive: 0.794 µM [activator, full curve, poor fit]. For `Cc1cccn2cc(-c3cccc(NS(=O)(=O)c4ccc(Cl)c(Cl)c4)c3)nc12`, the Potency was “inactive”. For `O=C(CC1CCCC1)Nc1ccc2c(c1)CCC2`, the Potency was inconclusive: 5.01 µM [activator, partial curve]. With `COC(=O)c1cccc(COC(=O)c2ccc(N(C)C)cc2)c1` the Potency was inconclusive: 2.24 µM [activator, full curve]. With `O=c1c2ccccc2nc(-c2ccccc2)n1Cc1ccc(Cl)cc1` the Potency was inconclusive: 7.08 µM [activator, partial curve]. For `COc1cccc(CNCCSc2nnnn2C)c1OCc1ccc(Cl)cc1Cl`, the Potency was inconclusive: 35.5 µM [activator, single point]. With `O=C(N/N=C/c1nn(-c2ccccc2)cc1-c1ccccc1)c1ccncc1` the Potency was inconclusive: 35.5 µM [activator, single point]. For `CCc1nnc(NC(=O)CCC(=O)NC2CCCc3ccccc32)s1` (stereo not drawn), the activity change, positive = activation was inconclusive: 36.7% [activator]. With `Fc1ccc(Cc2nnc(-c3cccs3)o2)cc1` the Potency was inconclusive: 8.91 µM [activator, partial curve]. With `Oc1cccc(C(Nc2ccccn2)c2ccc3cccnc3c2O)c1Cl` (stereo not drawn) the Potency was “inactive”. For `O=C(NCc1ccccn1)c1cc(-n2cnnc2)ccc1Cl`, the Potency was inconclusive: 0.0035 µM [activator, full curve, poor fit]. For `C=CCNC(=O)c1ccccc1NC(=O)Nc1ccccc1`, the Potency was “inactive”. For `Cc1ccc(C(=O)c2oc3ccccc3c2NC(=O)c2cc(=O)c3ccccc3o2)cc1`, the Potency was “inactive”. With `COc1cc(CCC(=O)Nc2ccc(Cl)c(C(F)(F)F)c2)cc(OC)c1OC` the Potency was “inactive”. In the case of `CCC(C)(C)NC(=O)CCCSc1nc2ccccc2s1`, the Potency is reported as inconclusive: 7.08 µM [activator, partial curve]. For `COc1cccc(NC(=O)c2ccc(-c3ccccc3[N+](=O)[O-])o2)c1`, the Potency was “inactive”. In the case of `C=CCNC(=O)CCc1nnc(C2(c3ccc(Cl)cc3)CCC2)o1`, the Potency is reported as active: 8.91 µM. In the case of `CNC(=O)NC(=O)C(C)OC(=O)c1c2c(nc3ccccc13)/C(=C/c1cccs1)CC2` (stereo not drawn), the Potency is reported as inconclusive: 35.5 µM [activator, single point]. For `Nc1ccc(S(=O)(=O)Nc2ccccn2)cc1`, the Potency was inconclusive: 17.8 µM [activator, single point]. In the case of `C=CCn1c(N)c(S(=O)(=O)c2cccs2)c2nc3ccccc3nc21`, the Potency is reported as inconclusive: 2.51 µM [activator, partial curve, poor fit]. In the case of `Cc1cccc2nc(COc3ccc(Cl)c4cccnc34)cn12`, the Potency is reported as inconclusive: 10 µM [activator, partial curve, poor fit]. With `CCOC(=O)c1sc(NCCNc2nc(C)c(C(=O)OCC)s2)nc1C` the Potency was “inactive”. With `Cc1cc(=O)n2nc(-c3ccc(C(F)(F)F)cc3)sc2n1` the Potency was active: 11.2 µM.
